# From the supplement of paper PMC8728848
# The other results are listed elsewhere or left out.
# B1: SP16663B-bot-321-25-321 (Bacteroides ovatus) (protein)
# chain: DDDDEVTMNSKFYLSTKVFPVDSYEASLSVILKDNSVVVNELQPNYRFVACATERLSKDVKITADSDDNLVSAYNKANDTEYNILPAENYSFTNKTVTIENGESVSGDSIKIELLNVGSLTTEGGYLLPVTISSIEGNNLDALSSNRGVVYLKIQNIHVNVESGQPAEGTLIADRSGWTVKVAPTTRGDAKNLIDGTNSDVARDGGAEYWLTVDIGKVQTLTGIRNKCYASSYSPTAVEVFTSSDGAKWKSIGAVTISKSGTQYIKFSKAVETRYLKYYVKQGPNTVSLTEFDLYAK
# How the values were obtained:
# Assay in all cases: glycan array binding signal (z-score within array); higher = stronger binding
# Settings in all cases: glycan notation: IUPAC condensed, linker removed
# [1] = target: Gal(a1-3)Gal(b1-4)GlcNAc(b1-2)Man
# In short: (§1)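 The binding signal is a Z-score computed within each array. Data were drawn from 3228 arrays in the Consortium for Functional Glycomics database, restricted to those with a known protein sequence. Scores were averaged over arrays of the same protein sequence at different concentrations or buffers, and over linkers, and negative values can be taken as non-binding.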
# [2] = target: Gal(a1-3)Gal(b1-4)GlcNAc(b1-2)Man(a1-3)[Gal(a1-3)Gal(b1-4)GlcNAc(b1-2)Man(a1-6)]Man(b1-4)GlcNAc(b1-4)GlcNAc
# In short: as §1
# [3] = target: Gal(a1-3)Gal(b1-4)GlcNAc(b1-3)GalNAc
# In short: as §1
# [4] = target: Gal(a1-3)Gal(b1-4)GlcNAc(b1-6)GalNAc
# In short: as §1
# [5] = target: Gal(a1-3)Gal(b1-4)[Fuc(a1-3)]GlcNAc
# In short: as §1
# [6] = target: Gal(a1-3)Gal(b1-4)[Fuc(a1-3)]GlcNAc(b1-2)Man(a1-3)[Gal(a1-3)Gal(b1-4)[Fuc(a1-3)]GlcNAc(b1-2)Man(a1-6)]Man(b1-4)GlcNAc(b1-4)GlcNAc
# In short: as §1
# [7] = target: Gal(a1-3)GalNAc
# In short: as §1
# [8] = target: Gal(a1-3)[Gal(a1-4)]Gal(b1-4)GlcNAc
# In short: as §1
# [9] = target: Gal(a1-4)Gal(b1-3)GlcNAc(b1-2)Man(a1-3)[Gal(a1-4)Gal(b1-3)GlcNAc(b1-2)Man(a1-6)]Man(b1-4)GlcNAc(b1-4)GlcNAc
# In short: as §1
# [10] = target: Gal(a1-4)Gal(b1-4)Glc
# In short: as §1
# [11] = target: Gal(a1-4)Gal(b1-4)GlcNAc
# In short: as §1
# [12] = target: Gal(a1-4)Gal(b1-4)GlcNAc(b1-2)Man(a1-3)[Gal(a1-4)Gal(b1-4)GlcNAc(b1-2)Man(a1-6)]Man(b1-4)GlcNAc(b1-4)GlcNAc
# In short: as §1
# [13] = target: Gal(a1-4)Gal(b1-4)GlcNAc(b1-3)Gal(b1-4)Glc
# In short: as §1
# [14] = target: Gal(a1-4)GlcNAc
# In short: as §1
# [15] = target: Gal(a1-6)Glc
# In short: as §1
# [16] = target: Gal(b1-2)Gal
# In short: as §1
# [17] = target: Gal(b1-3)Gal
# In short: as §1
# [18] = target: Gal(b1-3)Gal(b1-4)GlcNAc
# In short: as §1
# [19] = target: Gal(b1-3)GalNAc
# In short: as §1
# [20] = target: Gal(b1-3)GalNAc(a1-3)[Fuc(a1-2)]Gal(b1-4)Glc
# In short: as §1
# [21] = target: Gal(b1-3)GalNAc(a1-3)[Fuc(a1-2)]Gal(b1-4)GlcNAc
# In short: as §1
# [22] = target: Gal(b1-3)GalNAc(b1-3)Gal
# In short: as §1
# [23] = target: Gal(b1-3)GalNAc(b1-3)Gal(a1-4)Gal(b1-4)Glc
# In short: as §1
# [24] = target: Gal(b1-3)GalNAc(b1-4)Gal(b1-4)Glc
# In short: as §1
# [25] = target: Gal(b1-3)GalNAc(b1-4)[Neu5Ac(a2-3)]Gal(b1-4)Glc
# In short: as §1
# [26] = target: Gal(b1-3)GlcNAc
# In short: as §1
# [27] = target: Gal(b1-3)GlcNAc(a1-3)Gal(b1-4)GlcNAc
# In short: as §1
# [28] = target: Gal(b1-3)GlcNAc(a1-6)Gal(b1-4)GlcNAc
# In short: as §1
# [29] = target: Gal(b1-3)GlcNAc(b1-2)Man
# In short: as §1
# [30] = target: Gal(b1-3)GlcNAc(b1-2)Man(a1-3)[Gal(b1-3)GlcNAc(b1-2)Man(a1-6)]Man(b1-4)GlcNAc(b1-4)GlcNAc
# In short: as §1
# [31] = target: Gal(b1-3)GlcNAc(b1-2)Man(a1-3)[Gal(b1-3)GlcNAc(b1-2)Man(a1-6)]Man(b1-4)GlcNAc(b1-4)[Fuc(a1-6)]GlcNAc
# In short: as §1
# [32] = target: Gal(b1-3)GlcNAc(b1-2)Man(a1-3)[GlcNAc(b1-4)][Gal(b1-3)GlcNAc(b1-2)Man(a1-6)]Man(b1-4)GlcNAc(b1-4)GlcNAc
# In short: as §1
# [33] = target: Gal(b1-3)GlcNAc(b1-2)[Gal(b1-3)GlcNAc(b1-6)]Man(a1-6)[Gal(b1-3)GlcNAc(b1-2)Man(a1-3)]Man(b1-4)GlcNAc(b1-4)GlcNAc
# In short: as §1
# [34] = target: Gal(b1-3)GlcNAc(b1-3)Gal(b1-3)GlcNAc
# In short: as §1
# [35] = target: Gal(b1-3)GlcNAc(b1-3)Gal(b1-4)Glc
# In short: as §1
# [36] = target: Gal(b1-3)GlcNAc(b1-3)Gal(b1-4)GlcNAc
# In short: as §1
# [37] = target: Gal(b1-3)GlcNAc(b1-3)Gal(b1-4)GlcNAc(b1-2)Man(a1-3)[Gal(b1-3)GlcNAc(b1-3)Gal(b1-4)GlcNAc(b1-2)Man(a1-6)]Man(b1-4)GlcNAc(b1-4)GlcNAc
# In short: as §1
binder,measurement,setting,value
B1,glycan array binding signal (z-score),[1],-0.738
same,glycan array binding signal (z-score),[2],0.266
same,glycan array binding signal (z-score),[3],-0.585
same,glycan array binding signal (z-score),[4],-0.774
same,glycan array binding signal (z-score),[5],-0.313
same,glycan array binding signal (z-score),[6],-0.421
same,glycan array binding signal (z-score),[7],0.192
same,glycan array binding signal (z-score),[8],0.574
same,glycan array binding signal (z-score),[9],-0.127
same,glycan array binding signal (z-score),[10],-0.548
same,glycan array binding signal (z-score),[11],0.642
same,glycan array binding signal (z-score),[12],0.119
same,glycan array binding signal (z-score),[13],-0.359
same,glycan array binding signal (z-score),[14],-0.546
same,glycan array binding signal (z-score),[15],-0.741
same,glycan array binding signal (z-score),[16],-0.275
same,glycan array binding signal (z-score),[17],-0.483
same,glycan array binding signal (z-score),[18],0.44
same,glycan array binding signal (z-score),[19],-0.122
same,glycan array binding signal (z-score),[20],-0.267
same,glycan array binding signal (z-score),[21],0.09
same,glycan array binding signal (z-score),[22],-0.151
same,glycan array binding signal (z-score),[23],-0.128
same,glycan array binding signal (z-score),[24],0.67
same,glycan array binding signal (z-score),[25],0.087
same,glycan array binding signal (z-score),[26],0.263
same,glycan array binding signal (z-score),[27],0.257
same,glycan array binding signal (z-score),[28],-0.359
same,glycan array binding signal (z-score),[29],0.542
same,glycan array binding signal (z-score),[30],0.001
same,glycan array binding signal (z-score),[31],-0.328
same,glycan array binding signal (z-score),[32],0.338
same,glycan array binding signal (z-score),[33],-0.439
same,glycan array binding signal (z-score),[34],-0.414
same,glycan array binding signal (z-score),[35],-0.175
same,glycan array binding signal (z-score),[36],-0.115
same,glycan array binding signal (z-score),[37],0.244
